Data as given in PubChem BioAssay AID686978 (National Center for Advancing Translational Sciences (NCATS), 2013).
Among all 420,000 compounds or so, about 64,000 (15%) were called active. The inconclusive results got no clear call from the source; some entries with a clear call stand among them for comparison. The call rests on the fitted dose curve; in most records, active means well fitted inhibition curve with a large enough effect; inconclusive means small, poorly fitted or top-dose-only effect; inactive means flat fitted curve, though single readings scatter. No potency is given beside an inconclusive call; the fits are too rough.

test: qHTS for Inhibitors of human tyrosyl-DNA phosphodiesterase 1 (TDP1): qHTS in cells in absence of CPT; conditions: DT40 Tdp1-/- hTDP1 cells, no CPT, ATP luminescence, 48 h; activity change, negative = growth inhibition: at 46.2 µM (top of the series) unless noted; further: nearly all actives have a fitted effect of over 55% in size
Outline: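 Compound effects on proliferation are scored in DT40 Tdp1-/-;hTDP1 cells in the absence of CPT. ATP levels (CellTiter-Glo luminescence) are recorded after a ≥48 hr, 37 °C incubation.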
On the % scale 0 is the no-effect control and ±100 the full control effect; potency means the concentration at half of the fitted maximal effect; tags describe the fitted curve by direction and shape.

Structure (SMILES)	Potency	activity change, negative = growth inhibition
CCCCNc1nc(Oc2ccc(=O)[nH]n2)nc(N(C)C)n1	inactive	–
CC(C)(C)CC(C)(C)n1nnnc1N	inactive	–
COc1cc(/C=C/C(=O)Nc2ccncc2)cc(OC)c1OC	inconclusive [inhibitor, partial curve, poor fit]	–
CCc1nn(CC(=O)NCCCN(CC)CC)c(=O)c2cc3sc(C)cc3n12	inconclusive [inhibitor, single point]	inconclusive: -33.3% [inhibitor]
CCOC(=O)c1cccc(NC(=O)c2cc3c(=O)n(Cc4ccccc4)ccc3nc2C)c1	inconclusive [inhibitor, single point]	–
Nc1nc(Nc2cccc(Cl)c2)nc(NCc2ccco2)c1[N+](=O)[O-]	–	inconclusive: -35.3% [inhibitor]
CCOc1ccc(NC(=O)CN(C)C(=O)c2cc(-c3ccncc3)nc3ccccc23)cc1OCC	active: 16.4 µM	–
CCn1ncc(S(=O)(=O)Nc2cc(Cl)ccc2C)c1C	inactive	–
Cc1ccccc1C(=O)NN1C(=O)CSC1=S	inactive	–
CC(CCc1ccccc1)NC(=O)CCCn1ncn2c(cc3occc32)c1=O (configuration not stated)	inactive	–
COc1ccc(-c2noc(CCC(=O)NC3CCCCC3)n2)cc1OC	inactive	–
CCN(CC(=O)Nc1ccc2c(c1)OCO2)S(=O)(=O)c1ccccc1	inactive	–
CCNC(=S)N(CCc1c(C)[nH]c2ccc(C)cc12)Cc1ccco1	inconclusive [inhibitor, single point]	–
COC(=O)c1c(C)cccc1C1CN=NC12Cc1ccccc1C2=O (configuration not stated)	inconclusive [inhibitor, single point]	–
COC(=O)c1ccc(NC(=O)CSc2ccccc2)cc1	inconclusive [inhibitor, single point]	–
CC(Nc1ncnc2ccccc12)c1ccccc1 (configuration not stated)	active: 0.731 µM	–
C[C@@H]1CN([C@@H](C)CO)C(=O)c2cc(N(C)C)ccc2O[C@@H]1CN(C)Cc1ccncc1	inactive	–
CN(c1ccccc1)S(=O)(=O)c1ccc(C(=O)Nc2cccc(S(=O)(=O)N3CCOCC3)c2)cc1	active: 7.31 µM	–
COc1cccc(-n2c(=O)c3c(C)c(C(=O)N(C)C)sc3n(Cc3ccc(F)cc3Cl)c2=O)c1	active: 18.4 µM	–
Cc1cc(C)n(-c2ccc(C(=O)OCC(=O)N3CCN(c4ccccc4)CC3)cc2)n1	inconclusive [inhibitor, single point]	–
COc1cccc(C(=O)Nc2cccc(NC(=O)c3ccccc3Cl)c2)c1	inconclusive [inhibitor, single point]	–
CCOc1cc(C2C(C(=O)OC)=C(C)NC3=C2C(=O)c2ccccc23)cc(Cl)c1O (configuration not stated)	active: 18.4 µM	–
COc1ccc(OCCn2c(C)nc3ccccc32)cc1	inconclusive [inhibitor, partial curve]	–
O=C(CCC1N=C2c3ccccc3N=C(SCc3ccccc3F)N2C1=O)NC1CCCCC1 (configuration not stated)	active: 18.4 µM	–

Structure (SMILES)	Potency	activity change, negative = growth inhibition
CCCCn1nc2cc(C(=O)NCC34CC5CC(CC(C5)C3)C4)ccc2c1OC	inconclusive [inhibitor, single point]	–
O=C(NCc1ccccc1Cl)c1ccccc1CCc1ccccc1	active: 16.4 µM	–
CCOc1ncccc1C(=O)N1CCN(S(=O)(=O)c2ccc3ccccc3c2)CC1	inconclusive [inhibitor, single point]	–
CCOc1ccccc1NC(=O)c1ccccc1NS(C)(=O)=O	inconclusive [inhibitor, partial curve, poor fit]	–
Cc1nc2ccc([N+](=O)[O-])cc2c(=O)n1Cc1ccc([N+](=O)[O-])cc1	inconclusive [inhibitor, single point]	–
CCOc1ccc(C(=O)Nc2ccccc2N2CCCC2)cc1	inconclusive [inhibitor, single point]	–
COc1ccccc1OCCC(=O)NCc1ccc2c(c1)OCO2	inconclusive [inhibitor, single point]	–
COc1ccc(NC(=O)CN(Cc2ccccc2)S(=O)(=O)c2ccc(C)cc2)cc1Cl	inconclusive [inhibitor, single point]	–
COC(=O)c1ccc(CNC(=O)C(C)N=C2NS(=O)(=O)c3ccccc32)cc1 (configuration not stated)	inconclusive [inhibitor, single point]	–
CCC(=O)Nc1ccc2oc(-c3cccc(C)c3)nc2c1	active: 5.8 µM	–
Fc1ccc(-c2nc(Nc3cccc(Cl)c3)nc3c2COc2ccccc2-3)cc1	inconclusive [inhibitor, single point]	–
CCCCCc1cc(=O)oc2c(C(CCN3CCCCC3)c3cc(OC)c(OC)c(OC)c3)c(OC)cc(OC)c12 (configuration not stated)	inconclusive [inhibitor, single point]	–
CCOC(=O)c1ccoc1CSCC(=O)N1CCN(S(=O)(=O)c2ccc(C)cc2)CC1	inconclusive [inhibitor, single point]	–
CCc1nn(CCCC(=O)Nc2ccc(C)cc2C)c(=O)c2cc3occc3n12	inconclusive [inhibitor, single point]	–
CCC1(C)NC(=O)N(CC(=O)N2N=C(c3ccccc3)CC2c2ccc(OC)cc2)C1=O (configuration not stated)	inactive	–
COc1cccc2cc(C(=O)CS(=O)(=O)c3ccc(C(C)(C)C)cc3)c(=O)oc12	inconclusive [inhibitor, single point]	–
CS(=O)(=O)N1CCCCC1CCN1CCCCC1 (configuration not stated)	inactive	–
CCOP(=O)(OCC)C(NC(=O)Nc1ccccc1)C(N)=O (configuration not stated)	inactive	–
Cc1ccc(NC2CCCN(C(=O)C3CCCC3)C2)cc1C (configuration not stated)	inconclusive [inhibitor, full curve, poor fit]	–
COc1ccc(N2CCN(S(=O)(=O)c3ccc4c(c3)CC(C)N4C(C)=O)CC2)cc1 (configuration not stated)	inconclusive [inhibitor, partial curve]	–
CC1(C)O[C@@H]2C[C@H]3[C@@H]4CCC5=CC(=O)C=C[C@]5(C)[C@H]4[C@@H](O)C[C@]3(C)[C@]2(C(=O)CO)O1	inconclusive [inhibitor, partial curve, poor fit]	–
O=C(NCC(c1cccnc1)N1CCN(c2ccc(F)cc2)CC1)c1ccc2c(c1)OCO2 (configuration not stated)	active: 8.2 µM	–
O=C(CSC1CC(=O)N(c2ccc(C(=O)O)cc2)C1=O)Nc1ccc2ccccc2c1 (configuration not stated)	inconclusive [inhibitor, single point]	–
COc1ccccc1/C=C/C=N/N1CCN(Cc2ccccc2)CC1	inactive	–

Structure (SMILES)	Potency	activity change, negative = growth inhibition
COc1cccc(/C=N/Nc2c(Cl)cncc2Cl)c1O	inconclusive [inhibitor, partial curve, poor fit]	–
Cc1cc(NC(=O)NC(C(F)(F)F)C(F)(F)F)no1	inactive	–
NS(=O)(=O)c1ccc(CCNC(=O)CNS(=O)(=O)c2cccc(Br)c2)cc1	inconclusive [inhibitor, single point]	–
Cc1ccn2c(C(=O)CSc3ccc(Cl)cc3)c(C)nc2c1	active: 20.6 µM	–
CCOC(=O)N1CCN(S(=O)(=O)N2CCCC(C(=O)NCc3ccc(C)cc3)C2)CC1 (configuration not stated)	inconclusive [inhibitor, single point]	–
COc1ccccc1N1CCN(CCN(C(=O)c2ccc(F)cc2)c2ccccn2)CC1	inconclusive [inhibitor, partial curve]	–
O=C(NCCCCc1ccccc1)c1cccc(NC(=O)C2CC2)c1	inconclusive [inhibitor, single point]	–
CSCc1cc(N2CCOCC2)nc(SCc2ccc(Cl)cc2Cl)n1	inconclusive [inhibitor, single point]	–
CCCc1nc2ccc(C(=O)OC)cn2c1Cc1cccc(F)c1	inconclusive [inhibitor, single point]	–
CN1CCN(CCC(=O)N2c3ccccc3Sc3ccc(Cl)cc32)CC1	–	inconclusive: -30.8% [inhibitor]
O=C(CN1CCN(c2cccc(Cl)c2)CC1)NCc1ccccc1	inconclusive [inhibitor, single point]	–
CCOc1ccccc1NC(=O)c1cc2c(Cl)nc3ccccc3c2s1	inactive	–
CC/C(=N\NC(=O)c1ccccc1Cl)c1ccc(Br)s1	inconclusive [inhibitor, single point]	–
Cc1ccc2oc(C(=O)N3CCC(C(N)=O)(N4CCCCC4)CC3)c(C)c2c1	inconclusive [inhibitor, single point]	–
CCOC(=O)c1[nH]cnc1N=Nc1c(O)ccc2ccccc12	active: 5.8 µM	–
O=C(c1ccc(F)cc1)N1CCCC(c2nc(-c3ccncc3)no2)C1 (configuration not stated)	inconclusive [inhibitor, single point]	–
COc1ccc(N(Cc2cccs2)C(=O)COc2cccc(Cl)c2)cc1	inconclusive [inhibitor, single point]	–
Cc1ccc(Cl)cc1NC(=O)c1oc2c(c1C)-c1[nH]ncc1CC2	inconclusive [inhibitor, single point]	–
Cc1ccccc1-n1c(O)c(/C=N/N2CCCCC2c2cccnc2)c(=O)[nH]c1=O (configuration not stated)	inactive	–
O=C(N=C1SC2CS(=O)(=O)CC2N1c1cc(Cl)ccc1Cl)C1CCCO1 (configuration not stated)	inactive	–
COC(=O)/C(C#N)=C/c1occc1C	inactive	–
CCc1ccc(OCC(=O)NNC(=O)c2cnccn2)c(Br)c1	active: 8.2 µM	–
Cc1onc(-c2ccccc2Cl)c1C(=O)O/N=C(\N)c1cccc([N+](=O)[O-])c1	active: 23.1 µM	–
